Positions count from the first letter of the chain named.

Experiment [1] has as its target T1, human MASP-1 (human, UniProt P48740 20-699).
T1 sequence: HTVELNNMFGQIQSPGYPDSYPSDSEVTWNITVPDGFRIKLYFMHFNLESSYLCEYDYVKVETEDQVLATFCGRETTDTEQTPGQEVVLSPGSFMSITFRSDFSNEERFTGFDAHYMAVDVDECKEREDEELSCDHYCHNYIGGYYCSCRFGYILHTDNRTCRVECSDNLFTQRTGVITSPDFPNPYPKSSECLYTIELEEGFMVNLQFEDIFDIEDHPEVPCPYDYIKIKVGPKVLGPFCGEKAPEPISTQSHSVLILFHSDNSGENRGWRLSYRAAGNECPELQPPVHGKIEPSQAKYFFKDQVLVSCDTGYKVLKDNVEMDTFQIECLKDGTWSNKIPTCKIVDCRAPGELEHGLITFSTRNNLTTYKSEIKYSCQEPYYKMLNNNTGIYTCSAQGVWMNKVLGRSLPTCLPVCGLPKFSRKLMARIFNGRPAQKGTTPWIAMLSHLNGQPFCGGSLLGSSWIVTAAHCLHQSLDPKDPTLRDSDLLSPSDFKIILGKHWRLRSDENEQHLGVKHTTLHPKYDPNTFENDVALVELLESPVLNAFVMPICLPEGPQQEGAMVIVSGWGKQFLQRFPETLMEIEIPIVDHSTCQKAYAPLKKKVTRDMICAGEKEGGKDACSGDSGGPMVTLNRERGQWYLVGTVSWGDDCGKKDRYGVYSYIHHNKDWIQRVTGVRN
Description: cell-based or functional assay.

Experiment [2] addresses human MASP-2 (human, UniProt O00187 16-686). Briefly: cell-based or functional assay.
Chain of UniProt O00187 (O00187 16-686): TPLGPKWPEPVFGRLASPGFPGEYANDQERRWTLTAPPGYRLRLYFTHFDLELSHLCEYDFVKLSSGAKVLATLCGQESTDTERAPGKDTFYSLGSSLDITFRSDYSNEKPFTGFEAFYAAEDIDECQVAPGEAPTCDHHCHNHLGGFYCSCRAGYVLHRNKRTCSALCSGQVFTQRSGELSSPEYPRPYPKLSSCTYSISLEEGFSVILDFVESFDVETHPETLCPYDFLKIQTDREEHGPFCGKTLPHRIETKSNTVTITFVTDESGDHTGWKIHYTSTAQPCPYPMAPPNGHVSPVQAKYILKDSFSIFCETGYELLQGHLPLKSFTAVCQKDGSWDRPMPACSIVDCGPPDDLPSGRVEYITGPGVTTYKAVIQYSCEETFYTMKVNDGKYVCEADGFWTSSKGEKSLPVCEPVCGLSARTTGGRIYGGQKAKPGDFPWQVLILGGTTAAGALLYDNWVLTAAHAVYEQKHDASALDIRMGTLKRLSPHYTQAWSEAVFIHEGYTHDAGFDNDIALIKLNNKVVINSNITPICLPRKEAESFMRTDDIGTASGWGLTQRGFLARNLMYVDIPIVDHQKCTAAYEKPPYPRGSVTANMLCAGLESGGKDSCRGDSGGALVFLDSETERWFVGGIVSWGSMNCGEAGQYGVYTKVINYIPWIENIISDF

B1: SGMI-1Fc (SGMI-1, linker and human IgG1-Fc) (Fc fusion)
chain: LEVTCEPGTTFKDKCNTCRCGSDGKSAFCTRKLCYQGTGGGSGSSSRS[not shown - human IgG1 Fc]
Take B1: in experiment [1], the “C3b deposition from 1% normal human serum on mannan-coated ELISA wells (IC50)” value was roughly 27 nM.

B2: SGMI-2Fc (SGMI-2, linker and human IgG1-Fc) (Fc fusion)
chain: B1 chain with F28V, R31K, K32L, L33W, Y35N
As to B2, the “C3b deposition from 1% normal human serum on mannan-coated ELISA wells (IC50)” value in experiment [2] is roughly 300 nM.

(Values after patent US20130273053A1 (UNIVERSITY OF LEICESTER, published 2013).)
